Test results reported in PubChem BioAssay AID1768 (National Center for Advancing Translational Sciences (NCATS), 2009).
Where “and” joins values, the source holds several entries; their conditions need not be identical. Identical values can stand only once. Out of some 270,000 compounds screened, about 620 (0.23%) were called active. The inconclusive results got no clear call from the source; some entries with a clear call stand among them for comparison. Calls follow the shape of the dose curve; as a rule, active = well fitted inhibition curve with a large enough effect in the polarisation, with a control signal flat (not every such curve was filed as active); inconclusive = small, poorly fitted or top-dose-only effect, or effect the other way, or a change in a side signal; inactive = no such curve, though single readings can be large or run the other way; the % refers to the polarisation. Potencies of inconclusive entries are doubtful fits and often do not repeat. “Side channel” marks fits to a control or component signal instead of the main read-out.
For FP activity change, negative = inhibition in this document: % of control where 0% means no effect.
Potency is read from the fitted curve at half-maximal effect; tags tell the direction and shape of the fitted curve or compound fluorescence and quenching.

The compounds below were run against Menin (Homo sapiens) (UniProt O00255) (assay: qHTS Assay for Inhibitors Targeting the Menin-MLL Interaction in MLL Related Leukemias: Competition With Texas Red Labeled MLL-derived Mutant Peptide). Details: fluorescence polarization; FP activity change, negative = inhibition: at 61.6 µM (top of the series).
UniProt O00255, sequence (O00255 whole entry, looked up): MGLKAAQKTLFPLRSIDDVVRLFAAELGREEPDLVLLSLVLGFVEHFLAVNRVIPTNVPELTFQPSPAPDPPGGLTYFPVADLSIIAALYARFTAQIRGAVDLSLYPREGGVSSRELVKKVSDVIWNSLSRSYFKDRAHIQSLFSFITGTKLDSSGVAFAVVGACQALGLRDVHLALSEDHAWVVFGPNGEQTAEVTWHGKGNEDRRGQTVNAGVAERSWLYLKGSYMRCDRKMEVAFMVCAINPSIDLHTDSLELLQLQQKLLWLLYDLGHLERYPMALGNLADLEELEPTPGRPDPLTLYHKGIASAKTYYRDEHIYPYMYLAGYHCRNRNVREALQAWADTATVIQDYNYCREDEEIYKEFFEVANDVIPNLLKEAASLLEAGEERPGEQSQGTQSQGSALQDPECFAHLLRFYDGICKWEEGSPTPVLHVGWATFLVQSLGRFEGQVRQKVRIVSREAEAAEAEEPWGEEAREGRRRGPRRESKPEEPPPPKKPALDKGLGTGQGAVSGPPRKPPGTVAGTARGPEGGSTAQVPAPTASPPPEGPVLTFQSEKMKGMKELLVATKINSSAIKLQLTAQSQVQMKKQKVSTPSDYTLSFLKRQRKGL
For `C=CCC(=O)N1CCCC(CO)(Cc2ccc(F)cc2F)C1` (stereo unspecified), the Potency was inconclusive: 31.6 µM [inhibitor, single point]. For `CC(=O)C1=C(O)C(=O)N(c2ccc(Br)cc2)C1c1ccccc1[N+](=O)[O-]` (stereo unspecified), the Potency was inconclusive: 31.6 µM [quencher, side channel, single point]. For `COC(=O)c1ccc(NC(=O)CSc2ccccn2)cc1`, the “FP activity change, negative = inhibition” value was inactive: -2.48%. With `COc1ccccc1C1CC(=O)Nc2cc3c(cc21)OCCO3` (stereo unspecified) the “FP activity change, negative = inhibition” value was inactive: -22.6%. With `CCN1C(=O)/C(=C2/Sc3ccc(OC)cc3N2C)SC1=Nc1cccc(O)c1` the Potency was inconclusive: 7.94 µM [quencher, side channel, partial curve]. In the case of `O=C(NC12CC3CC(CC(C3)C1)C2)N1CCN(C2CCCCC2)CC1`, the Potency is reported as inconclusive: 12.6 µM [inhibitor, partial curve]. `CC(N)(Cc1ccc(O)c(O)c1)C(=O)O` (stereo unspecified) was tested, and the “FP activity change, negative = inhibition” value was inactive: -0.509%. `Cc1c(Cl)cccc1-n1c(SCC(=O)NCc2ccccc2Cl)nnc1-c1ccncc1` was tested, and the Potency was inconclusive: 3.16 µM [inhibitor, full curve]. In the case of `COc1ccccc1CNC(=O)COc1ccc2c(c1)CCC2`, the Potency is reported as inconclusive: 10 µM [fluorescent, side channel, partial curve]. For `Cc1cc2ccccc2n1CCNC(=O)C1CC1`, the “FP activity change, negative = inhibition” value was inactive: -26.1%. `COc1ccc(CNC(=O)c2[nH]c(C)c(C(C)=O)c2C)cc1` was tested, and the Potency was inconclusive: 35.5 µM [inhibitor, single point]. In the case of `CS(=O)(=O)C1=NN2C(=N)/C(=C\c3ccc(OCCOc4ccccc4)cc3)C(=O)N=C2S1`, the Potency is reported as inconclusive: 7.08 µM [quencher, side channel, partial curve]. With `CSc1nsc(/C=C/Nc2ccc(F)cc2)c1C#N` the Potency was inconclusive: 31.6 µM [quencher, side channel, single point]. For `COc1cc(O)c2c(=O)c(O)c(-c3ccc(O)c(O)c3)oc2c1`, the Potency was inconclusive: 14.1 µM [quencher, side channel, partial curve] and inconclusive: 28.2 µM [quencher, side channel, single point]. `C#CCOCCOCCOCCNc1nc(N2CCN(C(=O)[C@H](Cc3cc4ccccc4[nH]3)n3cc([C@@H](N)CC(C)C)nn3)CC2)nc(N2CCN(C(=O)[C@H](Cc3cc4ccccc4[nH]3)n3cc([C@@H](N)CC(C)C)nn3)CC2)n1` was tested, and the Potency was inconclusive: 1.41 µM [fluorescent, side channel, full curve]. `COc1ccc(C(=O)Nc2sc3c(c2C(N)=O)CCCC3)cc1OC` was tested, and the Potency was inconclusive: 25.1 µM [fluorescent, side channel, single point]. For `N#Cc1cc(S(=O)(=O)c2ccc(Cl)cc2)c(N)[nH]c1=O`, the Potency was inconclusive: 28.2 µM [quencher, side channel, single point]. With `O=C(COC(=O)c1cc(=O)c2ccccc2o1)Nc1ccc2ccccc2c1` the Potency was inconclusive: 28.2 µM [fluorescent, side channel, partial curve]. `CCOC(=O)C1CCCc2c1[nH]c1ccc(Cl)cc21` (stereo unspecified) was tested, and the Potency was inconclusive: 12.6 µM [quencher, side channel, partial curve]. In the case of `Cc1ccc(NC(=O)/C(=C\C=C\c2ccccc2)NC(=O)c2ccccc2)cc1`, the Potency is reported as inconclusive: 35.5 µM [inhibitor, single point]. With `COc1ccc(-c2c(O)c3c(OC)c4c(cc3oc2=O)OC(C)(C)C=C4)cc1` the Potency was inconclusive: 22.4 µM [quencher, side channel, partial curve]. With `O=C(/C=C/c1cccs1)NC(=S)NNC(=O)Cc1cccs1` the Potency was inconclusive: 22.4 µM [quencher, side channel, single point]. In the case of `O=S(=O)(Nc1nc2ccccc2nc1NCc1ccco1)c1cccs1`, the Potency is reported as inconclusive: 31.6 µM [quencher, side channel, single point]. In the case of `Cc1c(N2CCCC2)cc2c(c1NC(=O)c1ccccc1Cl)C(C)(C)CC2(C)C`, the Potency is reported as inconclusive: 7.08 µM [inhibitor, full curve, poor fit]. In the case of `Cc1ccc(C)c(S(=O)(=O)C(C#N)c2nc3ccccc3nc2N2CC(C)OC(C)C2)c1` (stereo unspecified), the Potency is reported as inconclusive: 22.4 µM [quencher, side channel, partial curve]. In the case of `Cc1nc2c(C(=O)NCCc3ccccc3)c[nH]n2c(=O)c1Cl`, the Potency is reported as inconclusive: 14.1 µM [quencher, side channel, partial curve]. In the case of `CC(C)c1ccc(C2=C(O)c3ccccc3C(=O)C2=O)cc1`, the Potency is reported as inconclusive: 35.5 µM [quencher, side channel, single point]. With `Cc1ccc(-c2cc3ccccc3nc2N)cc1` the Potency was inconclusive: 12.6 µM [inhibitor, partial curve]. `COc1ccc(C=Nc2cccc3c(=O)[nH][nH]c(=O)c23)c2ccccc12` was tested, and the Potency was inconclusive: 28.2 µM [quencher, side channel, partial curve]. `CCOc1ccc(NC(=S)N(CCCN2CCCC2)Cc2cccn2Cc2ccc(Cl)cc2)cc1` was tested, and the Potency was inconclusive: 14.1 µM [fluorescent, side channel, partial curve]. For `CCOC(=O)c1c(C)oc2c1c1c(c3ccccc32)OCN(Cc2cccnc2)C1`, the Potency was inconclusive: 3.55 µM [inhibitor, partial curve]. `O=C(Nc1ccc(O)cc1)c1ccc(NC(=O)c2ccco2)cc1` was tested, and the Potency was inconclusive: 39.8 µM [inhibitor, single point]. For `COc1ccc(N2C(=O)c3ccc(C(=O)Nc4cc(OC)ccc4OC)cc3C2=O)cc1`, the Potency was inconclusive: 31.6 µM [fluorescent, side channel, partial curve]. In the case of `CNC(=O)/C(C#N)=C/c1c(N2CCCCCC2)nc2c(C)cccn2c1=O`, the Potency is reported as inconclusive: 3.98 µM [inhibitor, partial curve]. In the case of `CCCOP(=O)(c1ccc(N(C)C)cc1)C(O)c1ccc(Br)cc1` (stereo unspecified), the Potency is reported as inconclusive: 14.1 µM [fluorescent, side channel, partial curve]. In the case of `CCCc1cc(N2CCN(C(=O)c3ccco3)CC2)n2c(nc3ccccc32)c1C#N`, the “FP activity change, negative = inhibition” value is reported as inactive: 4.61%. For `Cc1cc(C(=O)Nc2ccc(S(=O)(=O)N3CCOCC3)cc2)ccc1[N+](=O)[O-]`, the Potency was inconclusive: 14.1 µM [quencher, side channel, partial curve]. With `C=C(C)CN(CC)c1ccc(N2C(=O)CCCC2=O)cc1[N+](=O)[O-]` the Potency was inconclusive: 7.08 µM [inhibitor, partial curve]. With `S=C(NCCc1ccccc1)NC1CC2CCC(C1)N2Cc1ccccc1` (stereo unspecified) the Potency was inconclusive: 31.6 µM [fluorescent, side channel, partial curve]. With `O=C(O)CCC(=O)Nc1ccc(/C=C/C(=O)C2CC2)cc1` the Potency was inconclusive: 20 µM [fluorescent, side channel, partial curve]. `Cc1ccc(F)c(CNC(=O)C2CCC(=O)N(Cc3ccccn3)C2)c1F` (stereo unspecified) was tested, and the Potency was inconclusive: 3.16 µM [inhibitor, full curve, poor fit]. With `COc1ccc2ccccc2c1/C=N/Nc1ccc(Cl)c(C(=O)O)c1` the Potency was inconclusive: 11.2 µM [quencher, side channel, single point]. In the case of `COc1cc(/C=C2/C(=O)NN(c3cccc(Cl)c3)C2=O)cc(Br)c1O`, the Potency is reported as inconclusive: 25.1 µM [quencher, partial curve]. In the case of `COc1ccc(CN2CCC(CO)(CCOc3ccccc3)CC2)c(OC)c1C`, the Potency is reported as inconclusive: 28.2 µM [inhibitor, single point]. In the case of `COc1ccc(/C=C/C(=O)c2cc(Br)ccc(=O)c2O)cc1`, the Potency is reported as inconclusive: 22.4 µM [quencher, side channel, single point]. In the case of `COc1cc(NS(=O)(=O)c2cc3[nH]c(=O)c(=O)[nH]c3cc2C)cc(OC)c1OC`, the “FP activity change, negative = inhibition” value is reported as inactive: 5.33%. In the case of `Cc1cc2oc(=O)cc(CN(C)Cc3ccc(OC(F)F)cc3)c2cc1Cl`, the “FP activity change, negative = inhibition” value is reported as inactive: 7.43%. For `CCOc1cccc(/C=N/NC(=S)Nc2ccccc2[N+](=O)[O-])c1O`, the Potency was inconclusive: 15.8 µM [quencher, side channel, partial curve]. With `COc1ccc(OC)c(NC(=O)c2cccc(Cn3cc(Br)c([N+](=O)[O-])n3)c2)c1` the Potency was inconclusive: 6.31 µM [quencher, side channel, partial curve]. With `COc1ccc(-n2cc(CNCCCn3ccnc3)c(-c3cccc(F)c3)n2)cc1` the Potency was inconclusive: 14.1 µM [inhibitor, partial curve]. With `Cc1cccc(NC(=O)C2CCN(S(=O)(=O)c3cccc4nonc34)CC2)c1` the Potency was inconclusive: 39.8 µM [fluorescent, side channel, single point]. With `CCCN1CCC(=O)N([C@H](COc2ccccc2)CC(C)C)CC1` the Potency was inconclusive: 10 µM [inhibitor, partial curve]. In the case of `Cc1cccc(-n2c(=O)c3c(n4cnnc24)-c2ccccc2CC32CCCCC2)c1`, the Potency is reported as inconclusive: 15.8 µM [fluorescent, side channel, partial curve]. For `N#CCSc1nc(Nc2ccc3c(c2)OCO3)c2ccccc2n1`, the Potency was inconclusive: 17.8 µM [quencher, side channel, partial curve]. `N#Cc1cc2ccccc2n2nnnc12` was tested, and the Potency was inconclusive: 8.91 µM [inhibitor, single point]. `Nc1[nH]n2c(=O)cc(-c3ccccc3)nc2c1N=Nc1ccc(S(N)(=O)=O)cc1` was tested, and the Potency was inconclusive: 15.8 µM [quencher, side channel, partial curve].
